For assay [1], the target named is T1, myc-tagged human TSHZ2 (human) (UniProt Q9NRE2).
T1 sequence: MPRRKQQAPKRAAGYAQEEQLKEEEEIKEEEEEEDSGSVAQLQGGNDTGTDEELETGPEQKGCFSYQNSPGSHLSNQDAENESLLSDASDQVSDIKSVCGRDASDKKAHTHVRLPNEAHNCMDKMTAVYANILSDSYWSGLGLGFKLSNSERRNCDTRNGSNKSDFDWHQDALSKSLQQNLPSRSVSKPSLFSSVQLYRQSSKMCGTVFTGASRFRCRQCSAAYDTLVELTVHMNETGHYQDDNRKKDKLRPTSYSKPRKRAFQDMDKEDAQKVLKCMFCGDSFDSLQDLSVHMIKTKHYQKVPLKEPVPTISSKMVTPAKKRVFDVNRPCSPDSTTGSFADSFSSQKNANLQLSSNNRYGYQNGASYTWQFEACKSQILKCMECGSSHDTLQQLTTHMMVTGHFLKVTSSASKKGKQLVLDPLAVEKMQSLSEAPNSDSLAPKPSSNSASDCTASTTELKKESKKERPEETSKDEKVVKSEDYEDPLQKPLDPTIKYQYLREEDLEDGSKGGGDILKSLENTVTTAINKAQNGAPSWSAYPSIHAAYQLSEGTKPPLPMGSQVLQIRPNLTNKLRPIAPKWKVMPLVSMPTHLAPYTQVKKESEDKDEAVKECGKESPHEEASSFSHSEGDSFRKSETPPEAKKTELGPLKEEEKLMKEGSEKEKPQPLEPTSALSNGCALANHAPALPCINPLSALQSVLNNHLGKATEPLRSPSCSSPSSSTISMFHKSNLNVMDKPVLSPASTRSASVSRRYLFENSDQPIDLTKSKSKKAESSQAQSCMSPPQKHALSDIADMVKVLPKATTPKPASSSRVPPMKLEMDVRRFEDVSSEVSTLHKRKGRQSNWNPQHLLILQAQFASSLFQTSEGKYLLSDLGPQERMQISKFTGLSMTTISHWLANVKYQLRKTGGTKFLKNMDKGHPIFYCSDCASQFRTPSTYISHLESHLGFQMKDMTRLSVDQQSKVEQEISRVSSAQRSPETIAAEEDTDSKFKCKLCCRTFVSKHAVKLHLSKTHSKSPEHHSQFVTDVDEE
Description: co-IP; HEK293T cells transiently transfected with two tagged expression vectors; immunoprecipitation by the tags, as previously reported (ref. 30).

Amino acid sequences for entries named in this document (tags omitted).
UniProt P10070: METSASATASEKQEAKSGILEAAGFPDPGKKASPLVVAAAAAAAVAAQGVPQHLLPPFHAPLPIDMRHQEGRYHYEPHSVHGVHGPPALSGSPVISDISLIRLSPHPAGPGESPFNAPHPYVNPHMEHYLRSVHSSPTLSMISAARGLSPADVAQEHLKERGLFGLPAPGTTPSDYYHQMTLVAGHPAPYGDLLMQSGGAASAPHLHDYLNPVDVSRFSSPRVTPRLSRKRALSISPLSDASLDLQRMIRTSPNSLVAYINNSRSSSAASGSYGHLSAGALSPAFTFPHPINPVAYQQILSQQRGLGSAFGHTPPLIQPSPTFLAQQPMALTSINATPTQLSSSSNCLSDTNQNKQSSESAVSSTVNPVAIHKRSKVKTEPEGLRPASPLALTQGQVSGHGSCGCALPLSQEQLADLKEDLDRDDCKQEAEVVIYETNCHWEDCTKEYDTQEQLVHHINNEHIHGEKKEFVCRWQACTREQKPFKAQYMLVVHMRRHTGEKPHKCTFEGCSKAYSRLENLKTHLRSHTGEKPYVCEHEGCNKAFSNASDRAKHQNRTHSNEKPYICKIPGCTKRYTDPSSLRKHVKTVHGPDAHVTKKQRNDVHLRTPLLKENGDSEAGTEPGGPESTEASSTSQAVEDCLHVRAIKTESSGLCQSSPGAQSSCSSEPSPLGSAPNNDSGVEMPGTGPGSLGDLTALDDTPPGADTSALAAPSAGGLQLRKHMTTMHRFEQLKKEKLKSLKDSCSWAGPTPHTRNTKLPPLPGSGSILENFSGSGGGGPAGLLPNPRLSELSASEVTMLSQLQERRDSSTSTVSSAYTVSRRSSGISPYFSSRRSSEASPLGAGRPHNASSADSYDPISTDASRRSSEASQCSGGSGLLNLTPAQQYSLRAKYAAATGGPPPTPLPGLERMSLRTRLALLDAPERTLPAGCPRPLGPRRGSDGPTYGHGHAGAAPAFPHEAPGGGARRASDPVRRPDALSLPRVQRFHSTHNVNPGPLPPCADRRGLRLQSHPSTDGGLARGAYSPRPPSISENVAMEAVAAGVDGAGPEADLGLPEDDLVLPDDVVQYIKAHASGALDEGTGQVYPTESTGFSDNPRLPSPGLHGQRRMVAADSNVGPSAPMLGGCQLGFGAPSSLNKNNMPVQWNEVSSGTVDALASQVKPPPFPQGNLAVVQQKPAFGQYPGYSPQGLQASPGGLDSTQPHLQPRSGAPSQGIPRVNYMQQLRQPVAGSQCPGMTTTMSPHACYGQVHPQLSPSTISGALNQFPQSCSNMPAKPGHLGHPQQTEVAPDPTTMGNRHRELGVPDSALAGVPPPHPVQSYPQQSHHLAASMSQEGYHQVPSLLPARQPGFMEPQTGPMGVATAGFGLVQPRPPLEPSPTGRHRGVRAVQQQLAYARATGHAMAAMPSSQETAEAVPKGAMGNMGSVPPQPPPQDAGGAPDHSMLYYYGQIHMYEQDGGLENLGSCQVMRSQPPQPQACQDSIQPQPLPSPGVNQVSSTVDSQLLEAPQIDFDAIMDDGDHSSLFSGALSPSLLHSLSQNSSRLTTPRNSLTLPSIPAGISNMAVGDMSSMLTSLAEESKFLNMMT
UniProt P08151: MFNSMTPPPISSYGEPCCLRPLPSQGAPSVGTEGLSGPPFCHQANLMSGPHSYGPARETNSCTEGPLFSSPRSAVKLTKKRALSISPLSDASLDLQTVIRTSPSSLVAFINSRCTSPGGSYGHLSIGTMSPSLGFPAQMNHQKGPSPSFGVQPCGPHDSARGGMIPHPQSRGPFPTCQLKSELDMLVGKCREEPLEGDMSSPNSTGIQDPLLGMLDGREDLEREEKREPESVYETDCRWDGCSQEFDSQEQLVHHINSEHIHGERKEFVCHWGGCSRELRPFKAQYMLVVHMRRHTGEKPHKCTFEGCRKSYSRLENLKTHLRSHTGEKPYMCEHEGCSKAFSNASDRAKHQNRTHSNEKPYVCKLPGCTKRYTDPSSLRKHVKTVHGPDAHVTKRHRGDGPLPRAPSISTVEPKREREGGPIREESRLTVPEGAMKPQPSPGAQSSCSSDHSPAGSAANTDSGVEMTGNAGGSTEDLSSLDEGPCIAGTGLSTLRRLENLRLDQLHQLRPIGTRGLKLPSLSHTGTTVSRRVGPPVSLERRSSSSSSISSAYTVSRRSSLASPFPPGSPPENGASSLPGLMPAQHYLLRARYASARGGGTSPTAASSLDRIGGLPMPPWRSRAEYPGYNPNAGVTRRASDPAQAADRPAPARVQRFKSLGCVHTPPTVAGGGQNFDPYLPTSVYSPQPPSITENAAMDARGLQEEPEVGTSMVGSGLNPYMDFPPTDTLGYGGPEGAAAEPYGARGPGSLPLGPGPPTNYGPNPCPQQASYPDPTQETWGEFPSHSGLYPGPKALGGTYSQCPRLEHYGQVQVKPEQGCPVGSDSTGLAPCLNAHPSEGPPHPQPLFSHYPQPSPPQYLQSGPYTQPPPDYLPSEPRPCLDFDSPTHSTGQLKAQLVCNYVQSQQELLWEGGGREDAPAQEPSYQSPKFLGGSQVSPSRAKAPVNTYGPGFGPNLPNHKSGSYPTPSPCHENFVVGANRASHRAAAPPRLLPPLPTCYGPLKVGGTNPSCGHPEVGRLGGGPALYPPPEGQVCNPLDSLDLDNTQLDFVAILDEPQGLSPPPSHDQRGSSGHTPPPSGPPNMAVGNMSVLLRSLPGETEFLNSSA

In assay [2] the target is T2, myc-tagged human TSHZ2 harboring a mutated CtBP-interaction motif (764-PIALT) (human) (UniProt Q9NRE2).
T2 sequence: T1 sequence with D766A
The description is as above.

The target of assay [3] is T3, myc-tagged human TSHZ3 (human) (UniProt Q63HK5).
T3 sequence: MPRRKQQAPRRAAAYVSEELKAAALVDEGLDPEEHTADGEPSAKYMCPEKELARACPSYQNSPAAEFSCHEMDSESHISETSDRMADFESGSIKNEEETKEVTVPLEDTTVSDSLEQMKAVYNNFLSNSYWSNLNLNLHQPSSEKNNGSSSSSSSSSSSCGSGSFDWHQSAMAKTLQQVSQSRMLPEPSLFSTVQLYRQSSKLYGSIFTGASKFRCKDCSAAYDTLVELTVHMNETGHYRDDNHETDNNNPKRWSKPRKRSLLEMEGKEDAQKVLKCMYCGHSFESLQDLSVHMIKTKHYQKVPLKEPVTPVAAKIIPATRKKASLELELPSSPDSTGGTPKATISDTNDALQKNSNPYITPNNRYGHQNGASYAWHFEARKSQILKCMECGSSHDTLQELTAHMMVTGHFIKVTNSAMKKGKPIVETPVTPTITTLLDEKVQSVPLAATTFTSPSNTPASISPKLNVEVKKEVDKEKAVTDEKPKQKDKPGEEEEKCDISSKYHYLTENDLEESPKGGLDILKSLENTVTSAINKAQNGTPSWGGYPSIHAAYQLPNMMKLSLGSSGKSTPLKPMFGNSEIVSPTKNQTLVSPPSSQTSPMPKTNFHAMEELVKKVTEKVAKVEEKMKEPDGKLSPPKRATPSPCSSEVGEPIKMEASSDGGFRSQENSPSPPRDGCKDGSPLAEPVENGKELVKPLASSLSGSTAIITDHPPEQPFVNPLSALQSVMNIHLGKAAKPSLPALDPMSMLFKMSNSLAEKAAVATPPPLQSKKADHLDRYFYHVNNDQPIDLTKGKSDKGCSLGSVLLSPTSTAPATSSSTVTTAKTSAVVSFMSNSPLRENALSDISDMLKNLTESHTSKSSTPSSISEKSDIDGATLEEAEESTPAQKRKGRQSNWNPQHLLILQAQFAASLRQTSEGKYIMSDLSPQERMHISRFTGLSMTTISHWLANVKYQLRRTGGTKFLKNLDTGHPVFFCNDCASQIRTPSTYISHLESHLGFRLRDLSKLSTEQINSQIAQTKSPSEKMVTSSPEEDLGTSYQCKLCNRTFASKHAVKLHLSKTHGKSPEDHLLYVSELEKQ
Described as above.

Assay [4] deals with T4, myc-tagged human TSHZ1 (human) (UniProt Q6ZSZ6).
T4 sequence: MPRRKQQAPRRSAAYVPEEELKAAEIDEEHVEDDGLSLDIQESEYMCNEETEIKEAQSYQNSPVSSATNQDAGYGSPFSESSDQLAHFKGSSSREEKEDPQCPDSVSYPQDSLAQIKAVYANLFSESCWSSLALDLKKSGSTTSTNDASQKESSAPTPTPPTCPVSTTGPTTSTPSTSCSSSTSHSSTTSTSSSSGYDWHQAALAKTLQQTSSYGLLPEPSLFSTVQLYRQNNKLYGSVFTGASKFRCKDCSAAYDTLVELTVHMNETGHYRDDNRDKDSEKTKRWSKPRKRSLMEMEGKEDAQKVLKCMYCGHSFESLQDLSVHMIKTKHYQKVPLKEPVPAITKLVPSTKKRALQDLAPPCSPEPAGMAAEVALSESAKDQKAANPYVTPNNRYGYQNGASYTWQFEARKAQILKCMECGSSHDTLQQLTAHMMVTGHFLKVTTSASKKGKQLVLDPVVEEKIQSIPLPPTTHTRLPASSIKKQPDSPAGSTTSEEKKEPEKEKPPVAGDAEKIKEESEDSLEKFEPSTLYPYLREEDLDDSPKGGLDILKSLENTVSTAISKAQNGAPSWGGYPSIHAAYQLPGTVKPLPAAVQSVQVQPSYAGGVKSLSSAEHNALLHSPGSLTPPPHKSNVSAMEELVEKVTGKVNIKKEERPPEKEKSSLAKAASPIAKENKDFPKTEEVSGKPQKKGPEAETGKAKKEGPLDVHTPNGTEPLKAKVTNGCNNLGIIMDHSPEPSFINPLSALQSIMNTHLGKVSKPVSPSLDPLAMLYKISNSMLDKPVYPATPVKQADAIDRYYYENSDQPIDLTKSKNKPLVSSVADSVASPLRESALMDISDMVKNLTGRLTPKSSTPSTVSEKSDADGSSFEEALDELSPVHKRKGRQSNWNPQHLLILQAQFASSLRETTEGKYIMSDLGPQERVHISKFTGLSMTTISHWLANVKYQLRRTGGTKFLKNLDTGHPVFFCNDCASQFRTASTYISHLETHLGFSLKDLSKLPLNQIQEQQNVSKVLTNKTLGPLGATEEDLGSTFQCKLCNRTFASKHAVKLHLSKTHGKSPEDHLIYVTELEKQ
The assay is described as above.

Assay [5] has as its target endogenous CtBP2 (human (endogenous in human mammary tissue)) (UniProt P56545). Description: proximity ligation; in situ PLA (Duolink kit) on 2 μm sections of formalin-fixed, paraffin-embedded human mammary glands; endogenous proteins.
In assay [6] the target is FLAG-EGFP-tagged human GLI2 (human) (UniProt P10070). Description: co-IP; HEK293T cells transiently transfected with two tagged expression vectors; immunoprecipitation by the tags, as previously reported (ref. 30).
Assay [7] concerns the target FLAG-EGFP-tagged human GLI1 (human) (UniProt P08151). The description is as above.

Numbering of substitutions follows the chain as printed. No constants are given. Whether binding was seen depends on the method and setting. Binding seen in cells or lysates may run through a third protein. Some results given as binding are weak or reduced against the parent protein; the word gives no strength. For some assays here: Sequences can lack the tags named with a protein.

Consider “FLAG-tagged human CtBP2 (from UniProt P56545 1-445)”, for which the binding entry in assay [1] is “binds”; in assay [2] it was “no binding”.
With “HA-tagged human GLI1 (from UniProt P08151 1-1106)”, the figures for the binding result in assay [3], in assay [1] and in assay [4] were “no binding”, “binds” and “no binding”, respectively.
For “HA-tagged human GLI2 (from UniProt P10070 1-1586)”, the binding entry in assay [3] was “no binding”; in assay [1], “binds”; in assay [4] it was “no binding”.

B1: endogenous TSHZ2 (protein, UniProt Q9NRE2 1-1034)
chain: T1 sequence
On to B1, for which the binding result in assay [5] was “binds”.

B2: myc-tagged human TSHZ2 (protein, UniProt Q9NRE2 1-1034)
chain: T1 sequence
B2: the binding result in assay [6] and in assay [7] was “binds” each time.

Values taken from article PMC4868714.
